# According to the supplement of paper PMC12632987:
# Over roughly 1,800 sequences, “median log2 fold change of GCK-ALFA target abundance (FLAG IP / Myc IP barcode read proportion)” has its median near 0.14; the lowest 2% begin near -0.84. The list shows a part of the results.
# T1: TRAF2, Q12933
# T1 chain: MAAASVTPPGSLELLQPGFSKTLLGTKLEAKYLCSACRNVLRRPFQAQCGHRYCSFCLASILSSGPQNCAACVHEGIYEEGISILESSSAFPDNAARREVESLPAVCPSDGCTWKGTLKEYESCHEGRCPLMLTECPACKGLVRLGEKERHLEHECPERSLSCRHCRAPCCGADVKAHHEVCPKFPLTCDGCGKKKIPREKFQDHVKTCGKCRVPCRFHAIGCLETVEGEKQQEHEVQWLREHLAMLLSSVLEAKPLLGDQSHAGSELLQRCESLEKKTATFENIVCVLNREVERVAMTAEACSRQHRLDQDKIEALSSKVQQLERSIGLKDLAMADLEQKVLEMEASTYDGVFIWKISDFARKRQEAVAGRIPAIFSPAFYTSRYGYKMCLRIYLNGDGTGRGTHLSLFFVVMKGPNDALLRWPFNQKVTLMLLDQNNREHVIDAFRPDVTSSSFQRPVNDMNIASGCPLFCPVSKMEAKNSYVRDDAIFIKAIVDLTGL
# B1: traf2_out_9_17_2629 (protein)
# chain: AAREARRRETIRATADAFLDELEAEGVISPESVAKIRAAIDAAEARGLSPEELRAAVVGTLATTLLFDEKKSVKEANEYAGRLYRRIREALARTDAELAA
# B2: traf2_out_6_3_2517 (protein)
# chain: MEESIRKDARTVLENMGITTVEQLKKLVEANVNAVKKLVSRKDVDRADLAAANSVLNLTRAMVEVAAETLPDLTEEDVKEMNALIDEARELIEKKKKELE
# B3: traf2_out_13_95_1164 (protein)
# chain: SEEKTKKEREIASKAYDEMEEVATEYAEKVRALIDDPEAAALMDEVVRNMNEFTLEHATDELIARYPEKAEELEKLRDEALEKMREIRKKTTKELNEIEK
# B4: traf2_out_17_178_1670 (protein)
# chain: DKEEERKKISELTDKLIDLTEATAERLLALARAEGALSPEELALLEAALRSGSANTFLAVARRLAPKLPSAEEAQAILDAFEAEYKKLSKEIAEAYKKYE
# B5: traf2_out_20_3_2083 (protein)
# chain: EELEKKLEEELEKAIKLLKEAAKLADEETAKKLKELIKKIKESRELSPVDRLVVLSEVRREVLLLAQQAKAEGNEELAKILEEAAEALNRAMNLLMKIIE
# B6: traf2_out_16_171_1429 (protein)
# chain: SAEERAERIREEAERRAREIKERLELMRESLPLIQKELGWSKETILRSFESRARELIEEFERWIEEQKPKVDEETREYLERLLEELKRHAEELIRELREE
# B7: traf2_out_9_108_2578 (protein)
# chain: MTEEERLEEIFKKILELAEEFLEENDLSEELRESLLAAIEQAEKLYKEGEKRTAIILLAISLARVSYEVGEEVVEKVLKRLEEIDPRAYSAARRMVELLK
# B8: traf2_out_18_54_1949 (protein)
# chain: AELEALKEEARKVIEEWEEKVLALVADDPELQAMVREMRERVLRALETEGLWAAVTVFRRESTELIAAITDPEVADAVGDIAAEARNKLAKLAIEYEKAK
# B9: traf2_out_14_149_1252 (protein)
# chain: SETEKKKEALKKAAELMEEIIKILEKALKAGSTDVDMEKIKALVEEAKKILKEQGFVLGHLLAIEDMLETTKEFTLEDIKALKELAEKARESLLVLAEML
# B10: traf2_out_17_178_1696 (protein)
# chain: SKEEILKKISELTDELIDLADKYGTELIEKAKAEGVLTPEELARLEAALASGSNRTLLATAKEIIPKSKASEETKKLLAEFEAEYRKLAKKIAEAYEKYE
# B11: traf2_out_17_178_1746 (protein)
# chain: DKEKLKKKINELNGKIADVDDKLIEEIVKLAEADPTLSPEAKAAIKAAARAGSARTAAALFLENSTDPELKKEAKELLAKAAKEKNKLADEILKAIEEMK
# B12: traf2_out_8_144_2535 (protein)
# chain: MMSRRELANRLANALVELDELKELADEETKEVLTKARRHIGQALNLVVFGGPREEILKEIEKAIEYLKEAKKLVEDNPELKEKVEKILKELKEIAKNVKE
# B13: traf2_out_18_3_1922 (protein)
# chain: KEEERQKISDEIDEVLDETRARAREELARGKKEIPEYAERFEELEALLEAGAGPFGILDEIAELYREAGLEEEAEEVERFRREKRRKMQELVDKYEELIK
# B14: traf2_out_11_155_722 (protein)
# chain: EKKREAQNKIVDFSLEVGDELLKEVEAIIAEVAERDPAVAAELRAIVARHLRFSATSAARAAIDALRERGLEEEAERLEKALEEAQKRKSEEIKRIEEEL
# B15: traf2_out_13_95_1038 (protein)
# chain: SKELAEKIMEIADEMEERSLALLEAAKEELADDPEAVAVLTEAKRLAETKGISEALHLLREASAANPEHAARFDALIEELEAIRREAGRKVAKLIKEEEE
# B16: traf2_out_13_95_1035 (protein)
# chain: SKELAEEIMKIADEALEKIEALLREAQARLADDPEAVAVLDEALRLARTRGVNEAIHLLREAAERLPEHREEFDALIEEIEKIREEAGRKVAKLIKEAEE
# B17: traf2_out_11_169_810 (protein)
# chain: EEAEKNRKINDFALELNDEAVEKLKKEALKLAKEAGLDVEEVEKIFEENKGKSLSAVAAALIKYFKEKGAEEAAEKVLKLYEELKEEINKKMTEKIKELE
# B18: traf2_out_6_3_2515 (protein)
# chain: SEEEERKRNEEALEEASEMSPETLKRAAETALKELERLVADPNATETDVEAAASFITTLLEILRKNAEKHPEKAEEYKKFAEEIEKRMEELLAEWKKKRA
# B19: traf2_out_11_169_842 (protein)
# chain: EEQAKNRAINDKALELNDEAKAKLKEHALALAKAAGLDVADINAIFEANKGKSFSAIAGALIAYFNSKGKADAAAAVEAKYEELKEEINKKATAFIKSLE
# B20: traf2_out_15_48_1354 (protein)
# chain: STEKLRATAREINDLFDATLAAVAAELRALLPELPPELRPLVEAAIHEAEVNTSINNVIALLDEAIARADPELAARLQALRDRLEATKKEASAMMNETLK
# B21: traf2_out_8_15_2557 (protein)
# chain: SLREAARKDLEKLKAASDGDEETFVNFVIGYARGLLRLAEIYLEEGNKEAALNTLDYTEALLEEALKYAKERKSKYLPKLEEEAKKIRERAEEIRKRIEA
# B22: traf2_out_1_158_905 (protein)
# chain: STDVNTLYAVATSILDVYAEEAKERGLEKAAALLEEAKKAVEELYEKNKDASLEEMAEKFKELLKEFEEKSKSLPEEEREAVEIAFRQARSGIEQVVKLA
# B23: traf2_out_13_95_1172 (protein)
# chain: SEEKTKKEREIASEAFDKMEKIAEDFAAKVRALIDDPAADALMDEVVRRMNIFTLEHAADQLQAAFPEKAAEIAALRDEAAAKMKEIRKETTKKLNEIEE
# B24: traf2_out_18_167_1823 (protein)
# chain: SAETAARIEELTDRLVALSEIRRLALQARHAMATDPAAAPAALAALIAALRAVPEFRPYADELEAAPEADKAALLERIADAAQRAANEAYKEREKLIEEA
# B25: traf2_out_17_178_1738 (protein)
# chain: SKEELLKKISEYADKLLDTNKEAMDKLKEIAEKEGVLTPELRALLDETSKNANLYHFEEVADKVIELVSSKEEVTKLKKETTAKMKELNKKIQEAYDKLE
# B26: traf2_out_17_162_1636 (protein)
# chain: AAVEEALKRIEKELEELRKKTEEFKELLKEIDKLTKEELTDYLVEASEARRRARELIVEVESLKDKIDPELRKEIIEELEKIAEELQKIANAFYKKREEL
# B27: traf2_out_3_89_2307 (protein)
# chain: AAEREATLEEMRREMEAYIRGFEKSARYVAKQMLADGASLDTLRGVLEAARSALLEVLRERMRERGLSEEEIEELLEEAEKRLNEVVERVVAAAEAERAA
# B28: traf2_out_13_95_1175 (protein)
# chain: EEEKTKKEREIASEAADRLEAVARRYAAEVAALLGDPEAAALAAEVVKNANIYTLEHAAAQLEARFPEKAAEIRALRDRAVAEMRAIRRETTAELNKIEE
# B29: traf2_out_18_3_1938 (protein)
# chain: KEEELKKVSEEIDKIIDEVTKKAREELERAKKEYPEFKEEVEELEKLLEAGAGPFGILEELAELAKKAGDEETAKEIEKFLEEKKKKLQELVDKYEELRK
# Molecular target: T1, TRAF2, Q12933
# Assay: median log2 fold change of GCK-ALFA target abundance (FLAG IP / Myc IP barcode read proportion) (log2 ratio); each designed protein is fused to an ALFA-tag nanobody in HEK293 cells to bring the named protein to FLAG-tagged glucokinase (GCK); Myc marks an untargeted standard; higher = target protein stabilised (more abundant)
# Conditions: target protein: 3xFLAG-MCP-GCK-ALFA reporter; HEK293 landing pad (RPLP)
# Method in brief: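 An ALFA-nanobody-fused binder library was recombined into HEK293 landing-pad cells and induced with 2 μg mL^−1 doxycycline. Cells were transfected with a plasmid expressing a FLAG-tagged target and a Myc-tagged standard. After 48 h, lysates underwent anti-FLAG and anti-Myc immunoprecipitation, and circular RNA barcodes were reverse transcribed, amplified and sequenced. Target abundance is the per-binder median log2 ratio of FLAG to Myc barcode read proportions. Barcodes needed ≥10^−7 proportion in both replicates, binders ≥3 barcodes per replicate, and a 10^−6 pseudocount was added; the two replicates were pooled.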
row,Binder,median log2 fold change
1,B1,0.00506
2,B2,-1.1
3,B3,0.212
4,B4,0.0801
5,B5,0.61
6,B6,-0.0449
7,B7,-0.362
8,B8,0.046
9,B9,0.209
10,B10,0.138
11,B11,0.0249
12,B12,0.0969
13,B13,0.307
14,B14,0.206
15,B15,-0.177
16,B16,-0.171
17,B17,-0.000749
18,B18,-0.0174
19,B19,0.282
20,B20,0.274
21,B21,-0.529
22,B22,0.107
23,B23,0.0918
24,B24,0.321
25,B25,0.108
26,B26,0.176
27,B27,-0.204
28,B28,0.212
29,B29,0.173
